The values that follow come from ChEMBL document CHEMBL4888484, “Replenishing the malaria drug discovery pipeline: Screening and hit evaluation of the MMV Hit Generation Library 1 (HGL1) against asexual blood stage Plasmodium falciparum ,using a nano luciferase reporter read-out” (2022).

Among all 150,000 compounds or so, about 540 (0.36%) showed an effect of 50% or more. The list shows a part of the results.

For this assay, the system named is Plasmodium falciparum. The experiment in a line: Primary screen in NF54 nanoGlo assay, in single point, at 2uM, 72h; a lower Z score goes with more inhibition. It is filed as functional, Erythrocyte. Particulars: timepoint 72 hour.
`CC(C)S(=O)(=O)c1c(Cl)cccc1NS(=O)(=O)c1ccc2c(c1)C[C@H](C)O2`: the “% Inhibition” value is listed as -11% and the Z score stood at 0.99.

Turning to `COc1ccc(-c2cc(C(=O)N3C[C@@H]4C[C@@H](C3)c3cccc(=O)n3C4)c3ccccc3n2)cc1`, the “% Inhibition” value was -3% and the Z score came to 0.45.

Turning to `CCOCCOc1cc(C)ccc1CN=C(NC)NC`, the “% Inhibition” value was determined as 2% and the Z score is reported as -0.36.

Consider `Cc1ccc(C(=O)N2CCN(c3ncccc3C(N)=O)CC2)cc1NC(=O)C1CCCC1`, for which the “% Inhibition” value is -5% and the Z score is listed as 0.68.

As for `C[C@H]1CCN(C(=O)CC(N)=O)CC1(F)F`, the “% Inhibition” value is -3% and the Z score was determined as 0.33.

With `CCc1ncc(C(=O)NCc2ccnc(C(F)(F)F)c2)s1`, the “% Inhibition” value is -8% and the Z score turned out to be 1.16.

`c1ccc2[nH]c(CN3CCC(c4nnc[nH]4)CC3)nc2c1`: the “% Inhibition” value is listed as -16% and the Z score is reported as 2.34.

Consider `O=C(Cc1cccc(Cl)c1)NC[C@H](O)CN1CCCCC1`, for which the “% Inhibition” value is reported as 6% and the Z score is -1.1.

As to `N#Cc1ccc(OCc2nnnn2C2CC2)c(Cl)c1`, the “% Inhibition” value is 2% and the Z score was -0.17.

For the compound `CCCc1nc(Cc2cccs2)nn1-c1cc(S(N)(=O)=O)ccc1F`, the “% Inhibition” value was 1% and the Z score was -0.15.

As to `O=C(NCc1cccnc1)Nc1nccs1`, the “% Inhibition” value is 1% and the Z score is recorded as -0.24.

Take `Cn1c(CN2CCOCC2)cc(=O)n(C)c1=O`: the “% Inhibition” value is -15% and the Z score came to 1.65.

In the case of `O=C1CNC(=O)N1CCCC(=O)N1CCCCCc2ccccc21`, the “% Inhibition” value is -19% and the Z score is given as 2.02.

`Cn1cc(-c2ccc(C(=O)N3CCC(F)(F)CC3)cc2)cn1`: the “% Inhibition” value was -7% and the Z score came to 1.3.

Take `CCCNC(=O)N1CCCN(c2nc(C3CC3)nc3c2cnn3-c2cccc(Cl)c2)CC1`: the “% Inhibition” value is reported as -20% and the Z score was 2.11.

Take `O=C(c1cc(-c2ccccc2)n[nH]1)N1C[C@@H](CN2CCOCC2)[C@@H](CO)C1`: the “% Inhibition” value was -14% and the Z score is 2.55.

With `CN1CCC[C@@H]1CCNC(C)(C)c1cn(-c2ccccc2)nn1`, the “% Inhibition” value amounted to 0% and the Z score is -0.05.

As for `Cc1oc(-c2ccc(C(=O)N3CCN(c4ccccc4)CC3)cc2)nc1CN1CCC(C)CC1`, the “% Inhibition” value was determined as 42% and the Z score is recorded as -3.95.

With `c1ccc(CNc2ccc(-c3nc4ccccc4o3)cc2)cc1`, the “% Inhibition” value was -11% and the Z score was found to be 1.52.

For `c1cc2c(cc1-c1nnc(NCc3csc(C4CC4)n3)o1)OCO2`, the “% Inhibition” value is -11% and the Z score came out at 1.3.

As for `CNc1snc(C)c1C(=O)N1CCN(Cc2ccc(-c3ccccc3F)s2)CC1`, the “% Inhibition” value was 3% and the Z score is recorded as -0.65.

As to `O=C(Nc1cccc(-c2noc(C3CCC3)n2)c1)c1ccc2c(c1)OCO2`, the “% Inhibition” value is recorded as -4% and the Z score was determined as 0.66.

Take `O=C(NCCC(=O)N1CCN(C2CS(=O)(=O)CC2O)CC1)c1cc(F)ccc1Br` (stereo not drawn): the “% Inhibition” value is listed as -2% and the Z score is 0.46.

As for `CCOc1ncccc1NC(=O)c1sc(-c2nnc[nH]2)nc1C`, the “% Inhibition” value is -8% and the Z score amounted to 0.71.

With `C[C@H](NCC(C)(O)c1ccc(Br)cc1F)C(N)=O` (stereo partly drawn), the “% Inhibition” value is recorded as -20% and the Z score worked out at 3.91.

For the compound `CCn1c(=O)c(-c2nc(-c3ccc4c(c3)OCO4)no2)c(O)c2ccccc21`, the “% Inhibition” value was -7% and the Z score was 0.96.

For `CCN(C(C)=O)c1nc2ccccc2n(CC(=O)Nc2ccccc2)c1=O`, the “% Inhibition” value was -3% and the Z score is on record as 0.5.

On to `O=C(Cc1cccnc1)NC[C@H]1CCCN(c2ncccc2F)C1`, for which the “% Inhibition” value stood at 2% and the Z score was -0.31.

As to `O=C(NC[C@H]1COCc2nc3ccccc3n21)c1cncnc1`, the “% Inhibition” value was 16% and the Z score was -1.84.

As for `O=C(NCc1ncc(Br)cn1)N1CC2(CCCCC2)C1`, the “% Inhibition” value is reported as -7% and the Z score came to 0.95.

Regarding `COc1ccc2c(c1)C1(CC1)CN(c1cncc(C#N)n1)C2`, the “% Inhibition” value is on record as -2% and the Z score was 0.46.

Take `CC1NC2(C(=O)N(CC(=O)N3CCOCC3)c3ccccc32)C2C(=O)N(c3cccc4ccccc34)C(=O)C12` (stereo not drawn): the “% Inhibition” value is recorded as -1% and the Z score was 0.09.

On to `COc1ccc(-c2cc3ncc(S(=O)(=O)c4ccccc4)c(-c4ccc(C)cc4)n3n2)cc1`, for which the “% Inhibition” value came to 30% and the Z score is reported as -3.87.

Turning to `CCCN(Cc1ccncc1)Cc1cnc2c(-c3ccccc3)cnn2c1`, the “% Inhibition” value worked out at 14% and the Z score was -1.92.

Turning to `O=C(NCc1ccc(F)cc1)N1CC[C@@H]2CN(Cc3ccccc3)[C@@H]2C1`, the “% Inhibition” value was -14% and the Z score was found to be 1.78.

With `NCc1ccc(C(=O)N(CCc2ccc(F)cc2)C2CCCC2)o1`, the “% Inhibition” value was 10% and the Z score was -1.84.

As for `CCOc1ncccc1CNC(=O)C[C@H]1CCOc2ccccc21`, the “% Inhibition” value was -12% and the Z score came out at 1.33.

On to `O=C(Nc1cccc(CNc2nc3ccccc3o2)c1)c1ccccn1`, for which the “% Inhibition” value was -13% and the Z score turned out to be 1.61.

With `CS(=O)(=O)N1CCN(C(=O)c2cc3c(s2)CCCCCC3)CC1`, the “% Inhibition” value is -21% and the Z score was determined as 1.92.

Regarding `c1cc2c(cc1OC[C@H]1CCCNC1)CCC2`, the “% Inhibition” value is reported as -2% and the Z score came to 0.3.

Take `Cc1nc(NC(=O)CS(=O)(=O)C(C)C)ccc1Br`: the “% Inhibition” value is recorded as -3% and the Z score came to 0.39.

For `COCc1noc(CCNC(=O)[C@@H](c2ccc3c(c2)OCO3)N(C)C)n1`, the “% Inhibition” value is recorded as -5% and the Z score is listed as 1.

For the compound `Nc1ccc(-c2noc([C@H]3CCO[C@@H]3c3cccnc3)n2)cc1`, the “% Inhibition” value is reported as -4% and the Z score was 0.79.

Consider `COc1ccnc(N2CCC[C@H]2c2cnn(C)c2)n1`, for which the “% Inhibition” value is recorded as 6% and the Z score is on record as -0.61.

Consider `O=C(Nc1scc(-c2ccccc2)c1C(=O)N1CCCCC1)c1ccccc1`, for which the “% Inhibition” value is given as 0% and the Z score is listed as 0.03.

For `Cc1cc(C)n(C[C@H](C)NCCc2csc(-c3ncccn3)n2)n1`, the “% Inhibition” value was -8% and the Z score is given as 1.59.

For the compound `Cc1nn(C)cc1Nc1nnc(Cn2nc(C(F)(F)F)c(Cl)c2C)s1`, the “% Inhibition” value was -45% and the Z score came out at 5.31.

For `CCCCn1nc(C)nc1-c1cccn1C1CC1`, the “% Inhibition” value is given as -19% and the Z score is reported as 1.91.

In the case of `CNC(=O)CN1CCCN(Cc2ccccc2)c2ccccc21`, the “% Inhibition” value is on record as 1% and the Z score is recorded as -0.2.

For the compound `Cc1ccc(N2CCN(C(=O)c3cc(C)n4nccc4n3)CC2)cc1`, the “% Inhibition” value is listed as -5% and the Z score is on record as 0.82.

As to `Cc1ccccc1S(=O)(=O)N1CCN(c2c(C)n(-c3ccccc3)c(=O)n(CC(C)C)c2=O)CC1`, the “% Inhibition” value turned out to be 37% and the Z score was -1.3.

Take `COc1cccc(NC(=O)[C@@H]2Cn3cccc3C(=O)N2C)c1`: the “% Inhibition” value is recorded as 2% and the Z score is on record as -0.3.

Consider `Cc1nc(-c2cccc(NC(=O)c3ncccn3)c2)cs1`, for which the “% Inhibition” value is -26% and the Z score is listed as 4.83.

Turning to `Cc1cccc(C)c1Cn1cc2c(n1)[C@@H](N)CCC2`, the “% Inhibition” value was determined as 6% and the Z score is -0.89.

What is called % Inhibition is the change of the read-out against control, counted positive when it falls.
